Results: the supplement of paper PMC11417369
The other results are listed elsewhere or left out.

test system: PF3D7_0420300 AP2 domain 1 (GST-tagged); test: gcPBM binding intensity (ln(normalized median fluorescence intensity)); higher = stronger DNA binding
How it was run: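 The highest Masliner-normalised natural-log median intensity across replicate spots of either probe orientation is reported as binding intensity. GST-tagged P. falciparum DNA-binding domains expressed in E. coli were applied for 1 h to an Agilent 4 × 180k array of primer-extended double-stranded 36-bp intergenic genomic probes plus negative controls, and bound protein was detected with Alexa488 anti-GST antibody and scanned at 488 nm.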

| Sequence | gcPBM binding intensity (ln) |
| --- | --- |
| AGGAAAAAAGAAAAAACACACATAAATATATATATA [CACACA_site3085] | 9.5 |
| AAATGAAATAAAATCATATATTTATAATTATTATAA [TGCATGCA_negctrl_site612] | 8.8 |
| CATACAGACATACATACACACATACCTATAAATATA [CACACA_site6995] | 9.82 |
| TTTTAATTAAGACACACACACACATATAAATATGTA [CACACA_site7144] | 10 |
| TATCATTTCATATCAAGTACAAACATTTTACATATA [XGTACX_site5307] | 9.12 |
| ATAATAATATATATTGTACACACAAAATGGGAAAAA [CACACA_site8568] | 9.74 |
| TATATATATATAATAGTGCATAAATAAATATATAAA | 9.28 |
| ATTAAGACACATTGCACACGTGCACCCATAGAAAAA [CACACA_site408] | 9.38 |
| TATTTATTATTAAGATGTACATAAAACACTGAATAA [XGTACX_site4246] | 9.26 |
| GACCATATGAATAATGCACACGTTTTAAAATATTAA [CACACA_site5312] | 9.29 |
| TGAAAAAGGAAAAAAAAAAAAAAAAAAAAAACGAAA [GTGCAC_negctrl_site555] | 9.36 |
| TATCTCATAGTATACACACACACACCCACCCATATA [CACACA_site1739] | 10.4 |
| AATATATATATATTCACACATAAAAAAGTAAAAAAA [CACACA_site5040] | 9.47 |
| CACACGCACGAACACACACACACACGCATATAAATA [CACACA_site6302] | 10.3 |
| AGCTCTTGTCATTTTGCACACACACCCGTATAGGTT [CACACA_site3056] | 10 |
| GATTCTTCACCGTACTCACACATATATATATATATA [CACACA_site5665] | 9.64 |
| AAAAGGGAAATAAAATAAAAAAAGAAACATATATAG [CACACA_negctrl_site455] | 9.39 |
| ATCCATTATTTTTGTTGTACGGGTAACTTTAAAAAG [XGTACX_site2226] | 9.25 |
| TCTTTTTTTTTTAAACGTACATTGCATTATCACGTA [XGTACX_site6873] | 9.19 |

| Sequence | gcPBM binding intensity (ln) |
| --- | --- |
| TTAATTTCTATATACGCATGTATGAATAAGATATTG [TGCATGCA_site202] | 8.88 |
| TAATTATATGTATACACACACATACATTTACATAAC [CACACA_site3238] | 9.82 |
| CAAACAAACAAATATACACACTTTTGTATAAAGTAA [CACACA_site5860] | 9.52 |
| TATAATTATATATATAGTACAGATTTGTTATGTTTA [XGTACX_site7724] | 9.2 |
| ATTTTTTTATAAGAAAATTTCTAACGTTAAAAAAAA [CACACA_negctrl_site1367] | 8.61 |
| ATGAATTATAAATATTCACACAATATTTTTCATATG [CACACA_site4484] | 9.16 |
| AGTGTGCTCAGCTTAGCACAAATTGGAATACCATGT [CACACA_negctrl_site367] | 9.25 |
| GAAAATGAAATCCTTGCATGTAAAATTAAAATAGAA [TGCATGCA_site569] | 9.16 |
| TTTTTTTCTTAAAGATGTACTTTTTAAAAATAATCT [XGTACX_site1429] | 8.88 |
| GTAGTAATAAATTAAAGTACAGAATATATTATACTA [XGTACX_site2809] | 9.36 |
| CATTTACATGCCAACATGCACTGAACAATCTTTATA [GTGCAC_site9797] | 9.19 |
| ACAAAACTTTTAAGAACACACAAAAATGTACTATCG [CACACA_site7245] | 9.42 |
| TTTTATGAATAATTATGTACATAACAAATGATATAT [XGTACX_site8318] | 9.09 |
| CCCTATATAAATAGCTGTACATTTGAACATGTTCAG [XGTACX_site2187] | 9.05 |
| TACAAAAAAAAATAAAATACATATATATATATATAT [XGTACX_negctrl_site608] | 9.3 |
| TTTACAGGAAAAAATACACACATTATTTTACCTTAT [CACACA_site2833] | 9.4 |
| CAATAAAAATTAAAATGTACAAATAAATATAAATAT [XGTACX_site7265] | 9.51 |
| ACATGCCAAAATCTAATACAATAATAATAAAAAAAA [XGTACX_negctrl_site160] | 9.22 |
| ATATAAATAAACAGGTGTACTATAATGTTCATAGTA [XGTACX_site1553] | 9.47 |

| Sequence | gcPBM binding intensity (ln) |
| --- | --- |
| TATGATTTCACATAATGTACTTGCTAATTCGTGAAT [XGTACX_site1408] | 9.07 |
| GGGAAAATATTTGGGTGTACAAACAAATTAGCTAGC [XGTACX_site6795] | 9.24 |
| TAATTATATATATATGCATGTTATAATTTTTATTTT [TGCATGCA_site78] | 9.13 |
| AAGAAAATATAAAATGCACACTATAAATTGTATTTA [CACACA_site4257] | 9.37 |
| TCTTTAACAAGTTAAACACACATACATAAATACATA [CACACA_site5406] | 9.43 |
| TTATGTCATAAATGCACACATATACATTGTTTTGAT [CACACA_site646] | 9.36 |
| TGTGTGTGTTCATGGGTGCTTTAATACTATTATAGG [GTGCAC_site9465] | 9.82 |
| TATTATAAAAATATTCAGATACATTAACTTACTTTT [XGTACX_negctrl_site4] | 9 |
| TATTTGCTACATATATGTACTAAAAACTTTTTGCTT [XGTACX_site2362] | 9.13 |
| TATCAATTTTTCTGGCTATCCAATTAGGGGAAGCCA [CACACA_negctrl_site1045] | 8.63 |
| ATTTGCTCACAAGAAGCACACAAAAAAAGAAAAAAA [CACACA_site9338] | 9.05 |
| CAAAAAATTTGACGTAGTACTTAAAAAAAAAAAAAA [XGTACX_site4523] | 8.81 |
| AACACCCACAGACACACACACAAAAATGATTAAAAA [CACACA_site2433] | 9.83 |
| TATTTGTATAAATAAAAATAATATATATCAAATAAC [CACACA_negctrl_site218] | 9.15 |
| ACAAAAATATTATATTGTACATTATTAGTTCATATT [XGTACX_site6750] | 9.38 |
| TTTTTATATAAATAATGTACATTTGGTTTTATTATA [XGTACX_site2125] | 9.24 |
| CAATAAATCGAAATCGTGCACGGACACATGCAGTAG | 9.52 |
| GGTTCATTTATATGGAGTACAAAAAATATGTATATA [XGTACX_site8209] | 9.05 |
